Reference: PubChem BioAssay AID485344 (National Center for Advancing Translational Sciences (NCATS), 2010)
Among all 340,000 compounds or so, about 6,900 (2%) were called active. No stated cut-off is given here; in the data, active means inhibition above about 30%; inactive means below that, where a call was filed. The list shows a part of the results, in another mix than the full data. Where no call is shown, the source filed none.

Target: D(2) dopamine receptor (Homo sapiens) (UniProt P14416)
Chain of UniProt P14416 (P14416 whole entry, looked up): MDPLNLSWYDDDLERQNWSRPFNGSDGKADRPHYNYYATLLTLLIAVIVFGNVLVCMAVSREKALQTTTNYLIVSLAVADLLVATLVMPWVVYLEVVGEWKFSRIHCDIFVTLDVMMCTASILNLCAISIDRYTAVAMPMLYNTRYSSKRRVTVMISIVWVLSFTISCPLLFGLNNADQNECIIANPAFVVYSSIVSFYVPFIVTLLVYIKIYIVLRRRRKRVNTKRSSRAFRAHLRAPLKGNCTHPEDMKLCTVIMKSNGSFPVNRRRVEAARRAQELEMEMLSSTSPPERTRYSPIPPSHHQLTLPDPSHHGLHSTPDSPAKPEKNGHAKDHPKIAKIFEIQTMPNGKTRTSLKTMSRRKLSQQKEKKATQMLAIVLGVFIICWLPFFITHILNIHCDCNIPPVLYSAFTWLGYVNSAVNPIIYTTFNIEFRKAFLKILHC
Assay: HTS Assay for Allosteric Antagonists of the Human D2 Dopamine Receptor: Primary Screen for Antagonists; further: 0% is about no effect
Conditions: HEK293 TREx D2 cells, calcium flux, dopamine EC80; at 10 µM; stronger effect = higher value
Outline: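 Calcium flux kinetic readout in an inducible HEK293 TREx D2 line plated overnight at 30 C. After 180 s compound exposure, an EC80 dopamine challenge follows with another 180 s kinetic read to detect antagonism.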

Row | SMILES | inhibition
1 | Cc1cc(C)c(S(=O)(=O)Nc2ccc3oc4c(c3c2)CCCC4)cc1C | -3%
2 | COCCCNC(=O)c1ccc(CSc2nc3cccnc3n2Cc2ccc(OC)cc2)cc1 | 14.1%
3 | CCOC(=O)c1ccccc1NC(=O)CSc1c(C)cnc2c1c(=O)n(C)c(=O)n2C | -2.87%
4 | COc1cc(OC)cc(C(=O)NC2CC(C)(C)NC(C)(C)C2)c1 | active: 82.5%
5 | Cc1nc2c(c(C)c1CCC(=O)N1CCN(c3ccccc3)CC1)c(=O)n(C)c(=O)n2C | -18.7%
6 | COc1ccc(C2C=C(c3ccccc3)Nc3nc(NS(=O)(=O)c4ccccc4)nn32)cc1 (stereo unspecified) | 16.1%
7 | CCc1ccc(-n2c(=O)c3c4c(sc3n(Cc3ccccc3C#N)c2=O)CCCC4)cc1 | -16%
8 | CCCn1c2ccccc2c2cnn(CC(=O)Nc3cc(C)c(Cl)cc3OC)c(=O)c21 | 2.61%
9 | CC1CCc2c(sc(NC(=O)Cc3ccccc3)c2C(=O)Nc2ccc(Cl)cc2)C1 (stereo unspecified) | -10.7%
10 | COc1ccc(OC)c(NC(=O)CSc2nc(=O)n(CCN(C)C)c3c2CCC3)c1 | -2.09%
11 | COc1cc(NC(=O)CC2C(=O)N(c3ccccc3)C(=O)N2Cc2ccc(F)cc2)cc(OC)c1 (stereo unspecified) | -17.8%
12 | CCCOc1ccc(C2C(=O)N(C3CCCCCC3)CC(=O)N2Cc2ccccc2OC)cc1OC (stereo unspecified) | 5.03%
13 | COc1ccc(CN(C)CC(O)COC(c2ccc(OC)cc2)c2ccc(OC)cc2)cc1 (stereo unspecified) | active: 39.3%
14 | CSc1cccc(NC(=O)CN(c2cccc(C)c2)S(C)(=O)=O)c1 | active: 30.1%
15 | COc1ccc(CCC(=O)NCCc2csc(-c3ccc(F)cc3)n2)cc1 | 9.68%
16 | CCCCNC(=O)c1nn(C)c2c1CSc1ccccc1-2 | -14%
17 | Cc1ccc(C(=O)c2cn(Cc3cccc(Cl)c3)c3nc(C)ccc3c2=O)cc1 | 7.59%
18 | Cc1cc2c(cc1S(=O)(=O)NCc1ccc(F)cc1)n(C)c(=O)c(=O)n2C | 2.45%
19 | O=C(CSCc1ccc(F)cc1)N1CCN(c2ccccc2F)CC1 | -11.9%
20 | COc1ccc(NC(=O)c2ccco2)cc1NC(=O)COc1ccc(C)c(C)c1 | -6.95%
21 | CCOc1ccccc1N1CCN(Cc2cccc(OC)c2O)CC1 | active: 67.7%

Row | SMILES | inhibition
22 | CC(=O)Cn1c(CN2CCCC2)nc2ccccc2c1=O | active: 35.3%
23 | O=C(NCCc1ccccc1)c1ccc2c(c1)N(Cc1ccc(Cl)cc1)C(=O)CS2 | -18.9%
24 | COc1cccc(C(=O)NCC2OCCc3ccccc32)c1 (stereo unspecified) | 18.1%
25 | COc1cc(C)ccc1OCCSc1nc2ccc(NC(=O)c3ccco3)cc2s1 | 19.7%
26 | COc1ccc(C2CC(=O)c3cc(-c4nc(-c5cccc([N+](=O)[O-])c5)cs4)c(=O)n(-c4ccccc4)c3C2)cc1 (stereo unspecified) | 12.1%
27 | Cc1cc(Br)ccc1NC(=O)CNC(=O)CNc1cccc([N+](=O)[O-])c1 | active: 30.5%
28 | CCn1cc(C(=O)N(C)Cc2ccccc2)c(=O)c2cc(S(=O)(=O)N3CCc4ccccc4C3)ccc21 | 4.25%
29 | CCN1c2ccccc2-c2nc(SCC(=O)Nc3cccc(C)c3C)ncc2S1(=O)=O | 0.329%
30 | COc1ccc(CNC(=O)CCNS(=O)(=O)c2ccc3c(c2)oc(=O)n3C)cc1 | -16.9%
31 | Cc1ccccc1C(=O)Nc1cc(C)c(O)c(-c2nc3ccccc3o2)c1 | -12.5%
32 | O=C(COc1ccc(Cl)cc1Cl)NC(=O)N1CCCCC1 | active: 32.2%
33 | Cc1cc2c(s1)Nc1ccccc1N=C2N1CCN(C)CC1 | active: 76.8%
34 | CCCCCCn1nnc2sc(-c3ccccc3)cc2c1=O | 3.68%
35 | CC1CCN(CC2CCN(C(=O)NCc3ccccc3)CC2)CC1 | 9.58%
36 | CCOc1ccc(-c2nc(Cn3c(=O)cc(C)c4c(C)nn(-c5ccccc5)c43)c(C)o2)cc1 | 19.7%
37 | CCC1CN(C(=O)Nc2ccccc2F)c2cc(C)ccc2O1 (stereo unspecified) | 1.24%
38 | Cc1csc2nc(COC(=O)c3ccccc3NC(=O)c3cccc(Br)c3)cc(=O)n12 | 4.08%
39 | O=C(NCCc1ccc(Cl)cc1)c1c2c(nc3ccccc13)C(=O)N(C1CCCCC1)C2 | 11.1%
40 | O=S(=O)(c1ccc(Br)s1)N1CCN(c2cccc(C(F)(F)F)c2)CC1 | -3.18%
41 | COCCn1c(SCC(=O)Nc2cc(Cl)ccc2OC)nc2c([nH]c3ccccc32)c1=O | 14.1%
42 | Cc1noc(-c2ccc(-c3noc(-c4ccc(F)cc4)n3)cc2)n1 | 17.8%

Row | SMILES | inhibition
43 | O=C(CCCn1c2ccccc2c(=O)c2ccccc21)Nc1cccc(Cl)c1 | 1.32%
44 | COc1cccc(CNC(=O)c2cc3c(-c4ccccc4F)nn(C)c3s2)c1 | 5.57%
45 | CCOC(=O)c1cccc(NC(=O)CCSCCc2ccccn2)c1 | 16.1%
46 | COc1cc(C2Nc3ccccc3-c3cc(C)nn32)ccc1O (stereo unspecified) | 4.93%
47 | Cc1ccc(NC(=O)Cn2nc(-c3ccccc3)nc(Cc3ccc(Cl)cc3)c2=O)cc1 | -22.7%
48 | COc1cc(OC)cc(-c2cc3nc(C)c(CCC(=O)NCCc4cccc(C)c4)c(C)n3n2)c1 | 15.8%
49 | COc1cc(NC(=O)Cn2nc(C(F)(F)F)c3c2CCC3)cc(OC)c1OC | 4.98%
50 | O=C(CCn1c(=O)c2ccccc2n(CC(=O)Nc2cccc(F)c2)c1=O)NCCc1ccccc1 | 12.2%
51 | COc1ccc(OC)c(CNC(=O)c2ccc(N3Cc4ccccc4Oc4ncccc43)s2)c1 | -4%
52 | CC1CCCN(CCCNC(=O)c2cc(Sc3ccc(F)cc3)nc3ccccc23)C1 (stereo unspecified) | -6.23%
53 | Cc1cccc(Cn2cc(S(=O)(=O)c3cccc(Cl)c3)c(=O)c3cc(F)c(N4CCOCC4)cc32)c1 | 14.3%
54 | CCOC(=O)c1c(C)[nH]c(C)c1S(=O)(=O)N(C)CC(=O)Nc1ccc(OC)cc1 | -4.03%
55 | COc1ccc(CC(=O)Nc2c(C(=O)N3CCN(c4ccccc4)CC3)oc3ccccc23)cc1OC | -0.459%
56 | Cn1c(=O)c2nc(SCC(=O)Nc3ccc(OC(F)(F)F)cc3)n(C)c2n(C)c1=O | 18.1%
57 | CCN(CC)c1ncnc2c1cnn2-c1cc(Cl)ccc1C | 4.41%
58 | COc1ccc(-c2nc(CNC(=O)NC3CCCCC3)c(C)o2)cc1 | 17.6%
59 | COc1cc(C(CC(=O)Nc2ccc(C)c(F)c2)N2Cc3ccccc3C2=O)cc(OC)c1OC (stereo unspecified) | 17.9%
60 | CCOc1ccccc1NC(=O)C1CCN(S(=O)(=O)c2c(C)noc2/C=C/c2ccco2)CC1 | -17.5%
61 | O=C1OCC2=C1C(c1cccc(Cl)c1)CC(=O)N2c1ccc(C(F)(F)F)cc1 (stereo unspecified) | -6.8%
